Some of the results follow.
The compounds below were run on HepG2 (assay: cytotoxicity call (relative viability < 0.9)). Settings: 10 µM.

Row | Compound | cytotoxicity call
1 | CS(=O)(=O)N1[C@@H]2c3ccc(-c4ccc(F)cc4)c(=O)n3C[C@@H]2[C@@H](CO)[C@@H]1C(=O)O | inactive
2 | COc1ccc(S(=O)(=O)N2C[C@H](O)COC[C@H]3O[C@@H](CC(=O)NCc4ccc(Cl)c(Cl)c4)CC[C@@H]32)cc1 | inactive
3 | C[C@@H]1CCCCO[C@H](CN(C)C(=O)c2ccncc2)[C@H](C)CN([C@H](C)CO)C(=O)c2cc(NC(=O)NC3CCCCC3)ccc2O1 | inactive
4 | CC(C)NC(=O)Nc1ccc2c(c1)C(=O)N([C@H](C)CO)C[C@@H](C)[C@H](CN(C)Cc1ccc3c(c1)OCO3)O2 | inactive
5 | COc1ccc(NC(=O)Nc2ccc3c(c2)C(=O)N([C@@H](C)CO)C[C@@H](C)[C@@H](CN(C)C(=O)Nc2ccc(F)cc2)OCCCC[C@@H](C)O3)cc1 | inactive
6 | COc1ccc(NC(=O)N(C)C[C@H]2Oc3ccc(NC(=O)Nc4ccc(C(F)(F)F)cc4)cc3CC(=O)N([C@@H](C)CO)C[C@H]2C)cc1 | active
7 | COc1cc2c(cc1OC)CN(C[C@H]1C[C@H](c3ccccc3)O[C@H](c3ccc(NC(=O)CCCCCCC(=O)NO)cc3)O1)CC2 | active
8 | C[C@@H]1CCCCO[C@H](CN(C)CC2CC2)[C@H](C)CN([C@H](C)CO)C(=O)c2cc(NC(=O)C3CCCCC3)ccc2O1 | inactive
9 | C[C@@H]1CN([C@H](C)CO)C(=O)c2cc(NC(=O)C3CCCCC3)ccc2O[C@@H](C)CCCCO[C@H]1CN(C)C(=O)CCC(F)(F)F | inactive
10 | C[C@H](CO)N1C[C@H](C)[C@H](CN(C)C(=O)Nc2cccc3ccccc23)Oc2c(NS(=O)(=O)c3cccs3)cccc2C1=O | inactive
11 | C[C@H](CO)N1C[C@H](C)[C@H](CN(C)C(=O)Nc2ccc3c(c2)OCO3)Oc2c(NS(=O)(=O)c3cn(C)cn3)cccc2C1=O | inactive
12 | Cc1cc(C(=O)Nc2cccc3c2O[C@H](CN(C)S(=O)(=O)c2ccc(Cl)cc2)[C@@H](C)CN([C@H](C)CO)C3=O)n(C)n1 | inactive
13 | C[C@H]1CN([C@@H](C)CO)C(=O)c2cccc(NC(=O)c3ccc(-c4nccs4)cc3)c2O[C@@H]1CN(C)C(=O)Nc1ccccc1 | inactive
14 | C[C@@H]1CN([C@H](C)CO)C(=O)Cc2cc(NC(=O)CCCN(C)C)ccc2O[C@@H]1CN(C)S(=O)(=O)c1cccs1 | inactive
15 | NC(=O)CSc1ccccn1 | inactive
16 | COc1ccc(S(=O)(=O)N(C)C[C@@H]2Oc3ncc(C#CC4(O)CCCC4)cc3C(=O)N([C@H](C)CO)C[C@H]2C)cc1 | inactive

Row | Compound | cytotoxicity call
17 | COc1cccc(C#Cc2cnc3c(c2)C(=O)N([C@H](C)CO)C[C@@H](C)[C@@H](CN(C)C(=O)C2CCOCC2)O3)c1 | inactive
18 | C[C@H](CO)N1C[C@H](C)[C@H](CN(C)Cc2ccncc2)Oc2ccc(NC(=O)Cn3cnnn3)cc2C1=O | inactive
19 | COCC(=O)N1C[C@@H]2OCCN(CCN3CCCC3)[C@H]2C1 | inactive
20 | COc1ccc(S(=O)(=O)N2C[C@@H](O)COC[C@H]3O[C@@H](CC(=O)NCc4ccc(Cl)c(Cl)c4)CC[C@@H]32)cc1 | active
21 | C[C@]12C(=O)N(CCCCCO)[C@@H]3C(=O)N(c4ccc(Cl)cc4)CC=C[C@]31O[C@@H]1/C=C\CCCOC(=O)[C@H]12 | inactive
22 | C[C@H](CO)N1C[C@H](C)[C@H](CN(C)S(=O)(=O)c2cn(C)cn2)OCCCC[C@H](C)Oc2ccc(NC(=O)Nc3cccc4ccccc34)cc2C1=O | inactive
23 | COc1ccc(S(=O)(=O)Nc2ccc3c(c2)CC(=O)N([C@@H](C)CO)C[C@@H](C)[C@H](CN(C)C)O3)cc1 | inactive
24 | CCOC(=O)CC(=O)N1CCSC1COc1ccccc1OC (configuration not stated) | active
25 | Cc1noc(C)c1NC(=O)N(C)C[C@@H]1Oc2c(NC(=O)Nc3cccc4ccccc34)cccc2C(=O)N([C@H](C)CO)C[C@H]1C | inactive
26 | O=C(O)CCCNC(=O)c1ccccn1 | inactive
27 | C=CCN1C(=O)[C@]2(O[C@H](CCO)[C@@H]([Si](C)(C)c3ccc(OC)cc3)[C@@H]2C)c2cc(N(C=O)c3ccccc3)ccc21 | active
28 | Cc1ccc(S(=O)(=O)N(C)C[C@H]2Oc3c(NC(=O)c4cnccn4)cccc3C(=O)N([C@H](C)CO)C[C@@H]2C)cc1 | inactive
29 | C[C@@H]1CCCCO[C@H](CN(C)C(=O)Nc2ccc(F)cc2)[C@H](C)CN([C@@H](C)CO)C(=O)c2cc(NC(=O)NC3CCCCC3)ccc2O1 | inactive
30 | CC(C)NC(=O)N(C)C[C@H]1Oc2ccc(NS(=O)(=O)c3ccc(F)cc3)cc2CC(=O)N([C@H](C)CO)C[C@@H]1C | inactive
31 | O=C1O[C@@H](c2ccccc2)[C@@H](c2ccccc2)N2[C@@H](c3ccc(O)cc3)[C@]3(C(=O)Nc4ccc(C#CCCO)cc43)[C@@H](C(=O)N3CCCCCCC3)[C@H]12 | inactive

Each compound was assayed on S. aureus RN4220 (assay: growth inhibition call (relative growth <= 0.2)). Settings: 50 µM.

Row | Compound | growth inhibition call
32 | C[C@@H]1CN([C@H](C)CO)C(=O)Cc2cc(NC(=O)Nc3ccccc3)ccc2O[C@H]1CN(C)S(=O)(=O)c1cn(C)cn1 | inactive
33 | C[C@@H]1CN([C@@H](C)CO)C(=O)Cc2cc(NC(=O)c3ccncc3)ccc2O[C@H]1CN(C)S(=O)(=O)c1cn(C)cn1 | inactive
34 | C[C@@H]1CN([C@@H](C)CO)C(=O)c2cc(C#CCN(C)C)cnc2O[C@H]1CN(C)S(=O)(=O)c1ccccc1 | inactive
35 | C[C@H]1CN([C@@H](C)CO)C(=O)Cc2cc(NC(=O)Nc3cccc4ccccc34)ccc2O[C@@H]1CN(C)C(=O)Nc1cccc2ccccc12 | inactive
36 | O=C(/C=C/c1ccc(O)c(O)c1)O[C@H]([C@H](OC(=O)/C=C/c1ccc(O)c(O)c1)[C@H](OC(=O)/C=C/c1ccc(O)c(O)c1)C(=O)O)[C@@H](OC(=O)/C=C/c1ccc(O)c(O)c1)C(=O)O | inactive
37 | C[C@@H]1CN([C@@H](C)CO)C(=O)c2cc(NC(=O)Nc3ccc4c(c3)OCO4)ccc2O[C@@H](C)CCCCO[C@@H]1CN(C)C(=O)NC1CCCCC1 | inactive
38 | C[C@@H]1CN([C@@H](C)CO)C(=O)c2cccc(NC(=O)Nc3ccc(C(F)(F)F)cc3)c2O[C@H]1CN(C)Cc1ccc(C(F)(F)F)cc1 | inactive
39 | CCS(=O)(=O)N1C[C@]2(CN(C2)S(=O)(=O)c2cn(cn2)C)c2c([nH]c3cc(ccc23)OC)[C@H]1CO | inactive
40 | C[C@H]1CN([C@@H](C)CO)C(=O)c2cccc(NC(=O)Nc3ccc(C(F)(F)F)cc3)c2O[C@@H]1CN(C)Cc1ccc(-c2ccccc2)cc1 | inactive
41 | CS(=O)(=O)N1[C@@H]2c3ccc(-c4ccc(F)cc4)c(=O)n3C[C@@H]2[C@@H](CO)[C@@H]1C(=O)O | inactive
42 | COc1ccc(S(=O)(=O)N2C[C@H](O)COC[C@H]3O[C@@H](CC(=O)NCc4ccc(Cl)c(Cl)c4)CC[C@@H]32)cc1 | inactive
43 | C[C@@H]1CCCCO[C@H](CN(C)C(=O)c2ccncc2)[C@H](C)CN([C@H](C)CO)C(=O)c2cc(NC(=O)NC3CCCCC3)ccc2O1 | inactive
44 | CC(C)NC(=O)Nc1ccc2c(c1)C(=O)N([C@H](C)CO)C[C@@H](C)[C@H](CN(C)Cc1ccc3c(c1)OCO3)O2 | inactive
45 | COc1ccc(NC(=O)Nc2ccc3c(c2)C(=O)N([C@@H](C)CO)C[C@@H](C)[C@@H](CN(C)C(=O)Nc2ccc(F)cc2)OCCCC[C@@H](C)O3)cc1 | inactive
46 | COc1ccc(NC(=O)N(C)C[C@H]2Oc3ccc(NC(=O)Nc4ccc(C(F)(F)F)cc4)cc3CC(=O)N([C@@H](C)CO)C[C@H]2C)cc1 | inactive
47 | COc1cc2c(cc1OC)CN(C[C@H]1C[C@H](c3ccccc3)O[C@H](c3ccc(NC(=O)CCCCCCC(=O)NO)cc3)O1)CC2 | inactive

Row | Compound | growth inhibition call
48 | C[C@@H]1CCCCO[C@H](CN(C)CC2CC2)[C@H](C)CN([C@H](C)CO)C(=O)c2cc(NC(=O)C3CCCCC3)ccc2O1 | inactive
49 | C[C@@H]1CN([C@H](C)CO)C(=O)c2cc(NC(=O)C3CCCCC3)ccc2O[C@@H](C)CCCCO[C@H]1CN(C)C(=O)CCC(F)(F)F | inactive
50 | C[C@H](CO)N1C[C@H](C)[C@H](CN(C)C(=O)Nc2cccc3ccccc23)Oc2c(NS(=O)(=O)c3cccs3)cccc2C1=O | inactive
51 | C[C@H](CO)N1C[C@H](C)[C@H](CN(C)C(=O)Nc2ccc3c(c2)OCO3)Oc2c(NS(=O)(=O)c3cn(C)cn3)cccc2C1=O | inactive
52 | Cc1cc(C(=O)Nc2cccc3c2O[C@H](CN(C)S(=O)(=O)c2ccc(Cl)cc2)[C@@H](C)CN([C@H](C)CO)C3=O)n(C)n1 | inactive
53 | C[C@H]1CN([C@@H](C)CO)C(=O)c2cccc(NC(=O)c3ccc(-c4nccs4)cc3)c2O[C@@H]1CN(C)C(=O)Nc1ccccc1 | inactive
54 | C[C@@H]1CN([C@H](C)CO)C(=O)Cc2cc(NC(=O)CCCN(C)C)ccc2O[C@@H]1CN(C)S(=O)(=O)c1cccs1 | inactive
55 | NC(=O)CSc1ccccn1 | inactive
56 | COc1ccc(S(=O)(=O)N(C)C[C@@H]2Oc3ncc(C#CC4(O)CCCC4)cc3C(=O)N([C@H](C)CO)C[C@H]2C)cc1 | inactive
57 | COc1cccc(C#Cc2cnc3c(c2)C(=O)N([C@H](C)CO)C[C@@H](C)[C@@H](CN(C)C(=O)C2CCOCC2)O3)c1 | inactive
58 | C[C@H](CO)N1C[C@H](C)[C@H](CN(C)Cc2ccncc2)Oc2ccc(NC(=O)Cn3cnnn3)cc2C1=O | inactive
59 | COCC(=O)N1C[C@@H]2OCCN(CCN3CCCC3)[C@H]2C1 | inactive
60 | COc1ccc(S(=O)(=O)N2C[C@@H](O)COC[C@H]3O[C@@H](CC(=O)NCc4ccc(Cl)c(Cl)c4)CC[C@@H]32)cc1 | inactive
61 | C[C@]12C(=O)N(CCCCCO)[C@@H]3C(=O)N(c4ccc(Cl)cc4)CC=C[C@]31O[C@@H]1/C=C\CCCOC(=O)[C@H]12 | inactive
62 | C[C@H](CO)N1C[C@H](C)[C@H](CN(C)S(=O)(=O)c2cn(C)cn2)OCCCC[C@H](C)Oc2ccc(NC(=O)Nc3cccc4ccccc34)cc2C1=O | inactive
